According to ChEMBL document CHEMBL4888484, “Replenishing the malaria drug discovery pipeline: Screening and hit evaluation of the MMV Hit Generation Library 1 (HGL1) against asexual blood stage Plasmodium falciparum ,using a nano luciferase reporter read-out” (2022):
Among all 4,800 compounds or so, about 420 (8.8%) showed an effect of 50% or more. Some of the results follow.

What follows are compounds tested on Plasmodium falciparum (assay: Confirmatory screen in NF54 nanoGlo assay, in single point, at 2uM, 72h). Conditions: timepoint 72 hour.
Assay type: functional, Erythrocyte
CN1CCOC(C(=O)NC(c2c(F)cccc2F)C(F)(F)F)C1 (stereo unspecified) was tested, and the “% Inhibition” value was -1%.
With Cn1cc(-c2ccc(Cl)cc2)c2ncn(CC(=O)Nc3cccc(Cl)c3)c(=O)c21 the “% Inhibition” value was -5%.
With N#Cc1ccc(N2CCN3C(=O)NCC3C2)nc1N1CCN2C(=O)NCC2C1 (stereo unspecified) the “% Inhibition” value was -12%.
COc1cc(N2CCn3c(nc4cc(Cl)ccc43)C2)ccc1NC(=O)c1ccccc1OC was tested, and the “% Inhibition” value was 4%.
In the case of CCCCc1cc(NC(=O)c2cnc(C)cn2)on1, the “% Inhibition” value was -6%.
In the case of CCOc1cc(=O)c(C(=O)N2CCCCC2)nn1-c1ccc(OC)cc1, the “% Inhibition” value was -19%.
With O=C(NCCN1CCCC1)c1ccc2c(c1)OCCO2 the “% Inhibition” value was -12%.
With O=C(Nc1ccccc1Cl)N1CCC(N2CCc3sccc3C2)CC1 the “% Inhibition” value was 37%.
CC1CCC2(CC1)N=C(c1ccc(Cl)c(Cl)c1)C(=O)N2 (stereo unspecified) was tested, and the “% Inhibition” value was 7%.
For CN(C)c1ccc(C2OCC3(CCC4(COC(c5ccc(N(C)C)cc5)OC4)O3)CO2)cc1 (stereo unspecified), the “% Inhibition” value was -5%.
In the case of O=S(=O)(Cc1ccno1)NCCc1ccccc1OC(F)F, the “% Inhibition” value was 2%.
Cn1ncc2c(N3CC(=O)N(C4CC4)C3)ncnc21 was tested, and the “% Inhibition” value was -13%.
O=C(c1cccc(COc2ccc(Br)cc2)c1)N1CCN(Cc2ccccc2)CC1 was tested, and the “% Inhibition” value was -13%.
COC(=O)c1ccc(Nc2nc(C)c3nc(C)n(-c4ccc(C(=O)OC)cc4)c3n2)cc1 was tested, and the “% Inhibition” value was -1%.
With CCOc1cc([C@H]2Nc3ccccc3C(=O)N2c2ccccc2)ccc1OCc1ccc(F)cc1 the “% Inhibition” value was -9%.
Cc1ccc(C(=O)N2CC(n3cnnc3C)C2)cc1F was tested, and the “% Inhibition” value was -19%.
With C[C@H](NCc1cc(C(N)=O)cs1)c1cccc(Cl)c1 the “% Inhibition” value was 0%.
For CCOc1ncc(Br)cc1C(=O)O, the “% Inhibition” value was -17%.
In the case of COc1cccc2c1N(CC(=O)NCC(F)(F)F)CC[C@@H]2C, the “% Inhibition” value was 0%.
With CC[C@@H](Cc1ccccc1Br)C(=O)NCCC(N)=O the “% Inhibition” value was -8%.
O=C(c1ccccc1F)N(Cc1nccn1Cc1ccccc1F)CC1CC1 was tested, and the “% Inhibition” value was 20%.
In the case of C[C@@H](C(=O)Nc1cccc2ccccc12)N1CCCCC1, the “% Inhibition” value was 0%.
CCN(c1ccc(C(=O)Nc2cnc3[nH]nc(C)c3c2)cn1)C(C)C was tested, and the “% Inhibition” value was 6%.
In the case of CCCOC(=O)c1cc(NC(=O)c2ccc3ccccc3c2)ccc1N1CCOCC1, the “% Inhibition” value was -8%.
CC(C)(C)[C@H](Cn1cccn1)NC(=O)Cn1nc(C(F)F)c2c1CCC2 was tested, and the “% Inhibition” value was -4%.
With O=C(Cn1cnc2ccc(Cl)cc2c1=O)NCc1ccc2c(c1)OCO2 the “% Inhibition” value was -5%.
CC1(C)Oc2ccc(NC(=O)COc3ccccc3)cc2NC1=O was tested, and the “% Inhibition” value was 11%.
In the case of Cc1n[nH]cc1Nc1ccnc(C(C)(C)C)n1, the “% Inhibition” value was 2%.
In the case of C[C@H](Oc1ccccc1Cl)/C(N)=N\O, the “% Inhibition” value was -5%.
With COc1ccc(Nc2ncc(Cc3ccccc3C)s2)cc1 the “% Inhibition” value was 5%.
For CN(c1ccc2nnnn2n1)C1CCCCC1, the “% Inhibition” value was -4%.
With Cn1ccnc(NC(=O)N(Cc2c(F)cccc2F)C2CC2)c1=O the “% Inhibition” value was -15%.
With Cc1ccc(Cl)c(OCn2ccc(C(=O)Nc3ccc(Br)cn3)n2)c1 the “% Inhibition” value was -16%.
For CCOC(=O)[C@@H](N1CCCC1=O)n1c(=O)[nH]cc(C)c1=O, the “% Inhibition” value was -12%.
For O=C(c1cncnc1)N1C[C@H]2CCCC(=O)N(Cc3ccccc3)[C@H]2C1, the “% Inhibition” value was 2%.
In the case of CC(C)OC(=O)N1C(=O)c2ccccc2NC1(C(F)(F)F)C(F)(F)F, the “% Inhibition” value was -22%.
With Cc1cccc(NC(=O)Cn2ccc(C(=O)Nc3cccc(C)c3C)n2)c1C the “% Inhibition” value was -12%.
For CN1CCC(NCC[C@@H](Cc2ccccc2Cl)c2ccc(Cl)cc2)CC1, the “% Inhibition” value was 82%.
With COc1ccc(-n2ncc3c(NCCNC(=O)c4ccccc4Cl)nc(C)nc32)cc1 the “% Inhibition” value was -12%.
Cc1cccc(N2C(=O)C3CC3C2=O)c1 (stereo unspecified) was tested, and the “% Inhibition” value was 1%.
In the case of CCN1CCN(c2nc3ncn(CC(=O)NCCCc4ccccc4)c(=O)c3s2)CC1, the “% Inhibition” value was -4%.
In the case of CCOc1cccc2c1OC1(C)C(C(=O)Nc3ccc(C)cc3C)C2NC(=O)N1c1ccccc1 (stereo unspecified), the “% Inhibition” value was -7%.
CC(=O)C1(C(C)=O)[C@H](c2ccc(F)cc2)C1(C#N)C#N was tested, and the “% Inhibition” value was -15%.
In the case of CC(=O)Nc1cccc(NC(=O)[C@H]2CC[C@H](Cn3c(O)nc4ccccc4c3=O)CC2)c1, the “% Inhibition” value was -1%.
CC1(CCCCNC(=O)N2CC[C@H](S(C)(=O)=O)C2)OCCO1 was tested, and the “% Inhibition” value was -1%.
In the case of Cc1nccn1[C@H]1[C@@H]2OC[C@@H](O2)[C@@H](NCc2ccncc2Cl)[C@@H]1O, the “% Inhibition” value was 1%.
O=C(c1cccc(O)c1)N1CCC(OCc2ccccc2F)CC1 was tested, and the “% Inhibition” value was -1%.
In the case of O=C1NCCCc2nn(Cc3cc(F)ccc3Br)cc21, the “% Inhibition” value was -12%.
With Nc1c(-c2nc3ccccc3[nH]2)c2nc3ccccc3nc2n1Cc1ccccc1F the “% Inhibition” value was 64%.
Cc1nn(C)c(C)c1S(=O)(=O)Nc1ncc(C(C)C)s1 was tested, and the “% Inhibition” value was -1%.
With CCCCCC(=O)Nc1ccccc1Cl the “% Inhibition” value was 8%.
In the case of Cc1cc(NC(=O)c2cccc(S(=O)(=O)NC3CC3)c2)no1, the “% Inhibition” value was -8%.
For O=C(Nc1ncn(C[C@@H](COC(=O)c2ccc(F)cc2)OC(=O)c2ccc(F)cc2)c2ncnc1-2)c1ccc(F)cc1, the “% Inhibition” value was -15%.
With CN(C)CCOC(=O)CC[C@H]1CCOC(C)(C)C1 the “% Inhibition” value was 1%.
In the case of O=C(O)COc1ccccc1[C@H]1CC(O)=Nc2cccc3c2c1cn3Cc1cccc(F)c1, the “% Inhibition” value was 1%.
For CC(C)NC(=O)c1ccc(CN2C(=O)COc3ccc(C(=O)COc4ccc(F)c(F)c4)cc32)o1, the “% Inhibition” value was 4%.
CC(C)(C)CCN1CCN(S(=O)(=O)C[C@H]2CCCS(=O)(=O)C2)CC1 was tested, and the “% Inhibition” value was -3%.
For Cc1cc(N2CCC3(CCCN3Cc3cc(C#N)n(C)c3C)CC2)c2ccccc2n1, the “% Inhibition” value was 42%.
For COc1cccc(-c2nc3n(c2C(=O)Nc2ccccc2C#N)CCS3(=O)=O)c1, the “% Inhibition” value was 3%.
In the case of Fc1ccc(OCc2nccc(-c3ccc4c(c3)OCO4)n2)cc1, the “% Inhibition” value was 4%.
In the case of Cc1ccc(-c2csc(NC(=O)c3cccc(C(=O)Nc4nc(-c5ccc(C)cc5C)cs4)n3)n2)c(C)c1, the “% Inhibition” value was -1%.
With COc1cc(NC(=O)N[C@@H](C)C(=O)N2CCc3ccccc32)cc(OC)c1 the “% Inhibition” value was 4%.
With CC1CCC(c2noc([C@H]3CCO[C@@H]3c3cncc(Br)c3)n2)CC1 (stereo partly specified) the “% Inhibition” value was 52%.
With Cc1cc(C)c(NC(=O)c2nnn(CC(=O)NCc3ccc(F)cc3)c2C)c(C)c1 the “% Inhibition” value was -9%.
In the case of Cn1nccc1CCNS(=O)(=O)c1c[nH]c2cccc(F)c12, the “% Inhibition” value was 5%.
For O=S1(=O)CCN(C2CCN(Cc3c(F)cccc3F)CC2)CC1, the “% Inhibition” value was 4%.
COCCCn1c(=O)c2ccccc2n(CC(=O)N(C)c2ccccc2)c1=O was tested, and the “% Inhibition” value was -4%.
With O=C(N[C@@H](Cc1ccccc1)C(=O)OCc1cnc(-c2ccccc2)o1)c1ccccc1 the “% Inhibition” value was -5%.
With Cc1ccc(-c2nc(CNC(=O)C[C@H]3CNCCO3)[nH]c2-c2ccccn2)cc1 the “% Inhibition” value was 22%.
In the case of OCCCN1c2ccccc2Nc2nnc(-c3ccccc3)cc21, the “% Inhibition” value was -2%.
S=c1cc(-c2ccccc2)n(Cc2ccco2)c2c1CCCC2 was tested, and the “% Inhibition” value was 38%.
For Cc1ccccc1[C@H](CC(=O)O)NC(=O)C(F)(F)F, the “% Inhibition” value was 8%.
With Cc1cc(N(CCO)C2CC2)nc(C2CC2)n1 the “% Inhibition” value was -8%.
For Cc1cnc(N2CCCC2C2CCCO2)s1 (stereo unspecified), the “% Inhibition” value was -11%.
In the case of O=C(c1cn[nH]c1-c1ccccc1)N1CCCCCC1, the “% Inhibition” value was -3%.
In the case of Cc1cc(N2CC(OCc3ccccc3)C2)nc(Nc2cccc(O)c2)n1, the “% Inhibition” value was 96%.
With Cn1cc(NC(=O)Nc2cccc(OCC(F)F)n2)cn1 the “% Inhibition” value was -9%.
C[C@H]1[C@@H]2[C@@H](O)C([C@H](C)C(=O)NC3CCCC3)CC[C@@]2(C)CC[C@@H]1NC(=O)c1ccc(C#N)cc1 (stereo partly specified) was tested, and the “% Inhibition” value was -10%.
For CN(C)c1ccc(NC(=O)C(C2CC=CCC2)N(Cc2nc(-c3ccccc3)cs2)C(=O)Cn2nnc3ccccc32)cc1 (stereo unspecified), the “% Inhibition” value was 1%.
With Cc1ccc(Cl)c(OC(C)C(=O)N2C3CCC2CC(O)(Cc2ccc(F)cc2F)C3)c1 (stereo unspecified) the “% Inhibition” value was 2%.
In the case of COc1ccccc1[C@@H]1C=C(c2cccnc2)Nc2ncnn21, the “% Inhibition” value was -6%.
In the case of O=C(O)c1cc(N2CCC(Cc3ccccc3)CC2)ccc1NC(=O)C1CCC1, the “% Inhibition” value was -14%.
With CCC(C)(CC)[C@@](O)(C#CC[N+]1(Cc2ccccc2Cl)CCCCC1)c1ccccc1 the “% Inhibition” value was 4%.
In the case of Cn1ncc2c(NCCO)nc(N3CCCCCC3)nc21, the “% Inhibition” value was 5%.
For CNC(=O)Nc1cc(C)cc2c(-c3ccccc3)c(C(=O)NCc3cccc(F)c3)[nH]c12, the “% Inhibition” value was 2%.
In the case of Cc1nn(-c2ccccc2)c(C)c1C(=O)Nc1cccc(N2CCCC2=O)c1, the “% Inhibition” value was -11%.
CN(C(=O)[C@@H]1CCCN1C(=O)OC(C)(C)C)c1nccs1 was tested, and the “% Inhibition” value was -10%.
With O=C1CCc2cc(OS(=O)(=O)c3ccc(F)cc3)ccc2N1 the “% Inhibition” value was 3%.
For O=C1C[C@@H](C(=O)N2CCC3(CCCCC3)C2)CCN1, the “% Inhibition” value was -3%.
c1cn(CCCOc2ccc3c(c2)OCO3)nn1 was tested, and the “% Inhibition” value was 3%.
With CN(CC(=O)NCc1ccco1)c1nnc(N2CCCC2=O)s1 the “% Inhibition” value was 7%.
Cn1nc(C2CC2)c2c(C(F)F)cc(-c3ccc4c(c3)OCO4)nc21 was tested, and the “% Inhibition” value was -3%.
In the case of Cn1cccc1CNCc1ccncc1, the “% Inhibition” value was 0%.
COc1ccc(-n2ncc(Oc3cccc(C)c3)c(Nc3cccc(C(=O)NCc4ccc(F)cc4)c3)c2=O)cc1 was tested, and the “% Inhibition” value was 50%.
CC(C)c1c2cc3c(cc2nn1-c1ccccc1)OCCO3 was tested, and the “% Inhibition” value was -9%.
COc1ccc(-c2c[n+](-c3ccc(Cl)cc3)c3n2CCCCC3)cc1 was tested, and the “% Inhibition” value was 60%.
In the case of COC(=O)[C@]1(C)CN(C(=O)NCc2cc(C#N)ccc2F)C[C@H]1C, the “% Inhibition” value was 7%.
With Cc1cc(=O)[nH]c(-n2nc(C3CC3)cc2NC(=O)c2ccc(C(C)(C)C)cc2)n1 the “% Inhibition” value was 57%.
In the case of COc1cc(NCC(=O)NC(N)=O)cc(OC)c1OC, the “% Inhibition” value was -4%.
In the case of O=C(NC[C@H]1CCCO1)c1cc(C(=O)C2CC2)c[nH]1, the “% Inhibition” value was -13%.
For Cc1nc(NC(=O)c2ccn(COc3ccc(F)c(Cl)c3)n2)sc1C, the “% Inhibition” value was -15%.
